{
  "source": "the DeepSol protein solubility set",
  "assay": "soluble on expression in E. coli; label from the status in PepcDB or PDB records",
  "data": [
    {"sequence": "AYPMPNPFPPFRIAGNLYYVGTDDLASYLIVTPRGNILINSDLEANVPMIKASIKKLGFKFSDTKILLISHAHFDHAAGSELIKQQTKAKYMVMDEDVSVILSGGKSDFHYANDSSTYFTQSTVDKVLHDGERVELGGTVLTAHLTPGHTRGCTTWTMKLKDHGKQYQAVIIGSIGVNPGYKLVDNITYPKIAEDYKHSIKVLESMRCDIFLGSHAGMFDLKNKYVLLSKGQNNPFVDPTGCKNYIEQKANDFYTELKKQETG", "values": [
      {"measurement": "soluble on expression in E. coli", "result": "soluble"}
    ]}
  ]
}
